“And” between values parts separate entries of the source, which are not always exact repeats. Equal entries are not always repeated.
Target: T1, biotinylated truncated STAT6 (123-632)-avi (Homo sapiens, UniProt P42226)
T1 sequence (P42226 123-632 limits assumed): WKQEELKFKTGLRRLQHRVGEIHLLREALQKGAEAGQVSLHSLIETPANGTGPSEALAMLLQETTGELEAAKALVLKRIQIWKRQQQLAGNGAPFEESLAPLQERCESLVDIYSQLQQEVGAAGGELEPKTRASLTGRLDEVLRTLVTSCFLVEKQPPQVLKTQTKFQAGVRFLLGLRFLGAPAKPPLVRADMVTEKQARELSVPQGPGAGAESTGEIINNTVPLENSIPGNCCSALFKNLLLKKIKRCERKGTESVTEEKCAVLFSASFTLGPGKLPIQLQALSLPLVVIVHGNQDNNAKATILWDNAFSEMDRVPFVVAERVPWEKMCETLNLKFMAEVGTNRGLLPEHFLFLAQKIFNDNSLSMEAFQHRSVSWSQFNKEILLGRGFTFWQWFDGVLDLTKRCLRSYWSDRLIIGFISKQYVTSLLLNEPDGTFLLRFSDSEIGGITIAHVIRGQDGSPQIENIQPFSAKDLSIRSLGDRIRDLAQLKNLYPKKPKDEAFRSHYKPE
Assay: Homogenous Time-Resolved Fluorescence (HTRF) binding assay
Settings: 0.15 nM biotinylated truncated STAT6 (123-632)-avi, 20 nM fluorescein-labeled probe, 30 minutes at room temperature

Row | SMILES | IC50
1 | COc1cc(F)cnc1N1CCN(C(=O)c2cc(-c3cccnc3OC)c3c(c2)cc(C2=CCCN(C(=O)CCn4ccnn4)C2)n3CC2CC2)CC1 [Example I-726] | < 100 nM
2 | CCc1ccncc1-c1cc(C(=O)N2Cc3cnn(C)c3C2)cc2cc(C3=CCCN(C(=O)CCn4ccnn4)C3)n(CC3CC3)c12 [Example I-727] | < 100 nM
3 | COc1cc(F)cnc1N1CCN(C(=O)c2cc(-c3cccnc3C3CC3)c3c(c2)cc(C2=CCCN(C(=O)CCn4ccnn4)C2)n3CC2CC2)CC1 [Example I-728] | > 100000 nM
4 | COc1cnccc1-c1cc(C(=O)N2CCN(c3ncc(F)cc3OC)CC2)cc2cc(C3=CCCN(C(=O)CCn4ccnn4)C3)n(CC3CC3)c12 [Example I-729] | < 100 nM
5 | CCC1=C(c2cc(C3=CCCN(C(=O)CCn4ccnn4)C3)c(F)c3[nH]c(C(=O)N4CCN(c5ncc(F)cc5OC)CC4)cc23)CN(C)CC1 [Example I-730] | < 100 nM
6 | CCC1=C(c2cc(C3=CCCN(C(=O)CCn4ccnn4)C3)c(F)c3[nH]c(C(=O)N4CCN(c5ncc(F)cc5OC)CC4)cc23)CCNC1 [Example I-731] | < 100 nM
7 | CCn1c(C2=CCCN(C(=O)CCn3ccnn3)C2)cc2cc(C(=O)N3CCN(c4ncc(F)cc4OC)CC3)cc(-c3ccccc3OC)c21 [Example I-734] | < 100 nM
8 | CCc1nc(C)ccc1-c1cc(C2=CCCN(C(=O)CCn3ccnn3)C2)c(F)c2[nH]c(C(=O)N3CCN(c4ncc(F)cc4OC)CC3)cc12 [Example I-735] | < 100 nM
9 | COc1ccccc1-c1cc(C(=O)N2Cc3cnn(C)c3C2)cc2cc(C3=CCCN(C(=O)CCn4ccnn4)C3)n(CC3CC3)c12 [Example I-736] | < 100 nM
10 | CCc1cc(C)ncc1-c1cc(C2=CCCN(C(=O)CCn3ccnn3)C2)c(F)c2[nH]c(C(=O)N3CCN(c4nc(C)c(F)cc4OC)CC3)cc12 [Example I-737] | < 100 nM
11 | CCc1cc(C)ncc1-c1cc(C2=CCCN(C(=O)CCn3cccn3)C2)c(F)c2[nH]c(C(=O)N3CCN(c4nc(C)c(F)cc4OC)CC3)cc12 [Example I-738] | < 100 nM
12 | CCc1cc(C)ncc1-c1cc(C2=CCCN(C(=O)CCn3ccnn3)C2)c(F)c2[nH]c(C(=O)N3CCN(c4ccc(F)cc4OC)CC3)cc12 [Example I-739] | < 100 nM
13 | COc1cc(F)c(C)nc1N1CCN(C(=O)c2cc3c(-c4cnc(C)cc4C(C)C)cc(C4=CCCN(C(=O)CCn5ccnn5)C4)c(F)c3[nH]2)CC1 [Example I-740] | < 100 nM
14 | CCc1cc(CC)c(-c2cc(C3=CCCN(C(=O)CCn4cccn4)C3)c(F)c3[nH]c(C(=O)N4CCN(c5nc(C)c(F)cc5OC)CC4)cc23)cn1 [Example I-741] | 100 to 1000 nM
15 | CCc1cc(C)ncc1-c1cc(C2=CCCN(C(=O)CCn3ccnn3)C2)c(F)c2[nH]c(C(=O)N3CCN(c4ncc(F)cc4OC)CC3)cc12 [Example I-742] | < 100 nM
16 | CCC1=C(c2cc(C3=CCCN(C(=O)CCn4ccnn4)C3)c(F)c3[nH]c(C(=O)N4CCN(c5ncc(F)cc5OC)CC4)cc23)CNCC1 [Example I-743] | < 100 nM
17 | CCc1ccc(-c2cc(C3=CCCN(C(=O)CCn4ccnn4)C3)c(F)c3[nH]c(C(=O)N4Cc5cnn(CC)c5C4)cc23)c(C)n1 [Example I-761] | > 100000 nM
18 | CCn1ncc2c1CN(C(=O)c1cc3c(-c4ccc(C5CC5)nc4C)cc(C4=CCCN(C(=O)CCn5ccnn5)C4)c(F)c3[nH]1)C2 [Example I-762] | > 100000 nM
19 | CCc1cc(C(F)F)ncc1-c1cc(C2=CCCN(C(=O)CCn3ccnn3)C2)c(F)c2[nH]c(C(=O)N3CCN(c4nc(C)c(F)cc4OC)CC3)cc12 [Example I-763] | < 100 nM
20 | CCc1nc(C)ncc1-c1cc(C2=CCCN(C(=O)CCn3ccnn3)C2)c(F)c2[nH]c(C(=O)N3Cc4cnn(CC)c4C3)cc12 [Example I-764] | < 100 nM
21 | CCn1ncc2c1CN(C(=O)c1cc(C3=CCCCC3)c3c(c1)cc(C1=CCCN(C(=O)CCn4ccnn4)C1)n3CC1CC1)C2 [Example I-765] | < 100 nM
22 | CCn1ncc2c1CN(C(=O)c1cc3c(-c4cnc(C5CC5)cc4C)cc(C4=CCCN(C(=O)CCn5ccnn5)C4)c(F)c3[nH]1)C2 [Example I-766] | > 100000 nM
23 | CCc1cc(C(F)F)ncc1-c1cc(C2=CCCN(C(=O)CCn3ccnn3)C2)c(F)c2[nH]c(C(=O)N3Cc4cnn(CC)c4C3)cc12 [Example I-767] | > 100000 nM
24 | CCn1ncc2c1CN(C(=O)c1cc(C3CC3)c3c(c1)cc(C1=CCCN(C(=O)CCn4ccnn4)C1)n3CC1CC1)C2 [Example I-768] | > 100000 nM
25 | COc1ccccc1-c1cc(C2=CCCN(C(=O)CCn3ccnn3)C2)c(F)c2[nH]c(C(=O)N3CCN(c4ccc(F)c(F)c4F)CC3)cc12 [Example I-769] | < 100 nM

Row | SMILES | IC50
26 | COc1ccccc1-c1cc(C2=CCCN(C(=O)CCn3ccnn3)C2)c(F)c2[nH]c(C(=O)N3CCN(c4ccc5c(c4)c4ccccc4n5C)CC3)cc12 [Example I-770] | 1000 to 10000 nM
27 | COc1ccccc1-c1cc(C2=CCCN(C(=O)CCn3ccnn3)C2)c(F)c2[nH]c(C(=O)N3CCN(c4cc(C#N)cc5[nH]ccc45)CC3)cc12 [Example I-771] | < 100 nM
28 | COc1ccccc1-c1cc(C2=CCCN(C(=O)CCn3ccnn3)C2)c(F)c2[nH]c(C(=O)NC(C#N)c3ccccc3)cc12 (stereo not shown) [Example I-772] | > 100000 nM
29 | COc1ccccc1-c1cc(C2=CCCN(C(=O)CCn3ccnn3)C2)c(F)c2[nH]c(C(=O)N3CCN(C(C)(C)C)CC3)cc12 [Example I-773] | < 100 nM
30 | COc1ccccc1-c1cc(C2=CCCN(C(=O)CCn3ccnn3)C2)c(F)c2[nH]c(C(=O)N3CCN(c4cccnc4)CC3)cc12 [Example I-774] | < 100 nM
31 | COc1ccccc1-c1cc(C2=CCCN(C(=O)CCn3ccnn3)C2)c(F)c2[nH]c(C(=O)N3CCN(c4c(C)nn(C)c4C#N)CC3)cc12 [Example I-775] | < 100 nM
32 | COc1ccccc1-c1cc(C2=CCCN(C(=O)CCn3ccnn3)C2)c(F)c2[nH]c(C(=O)N3CCN(c4ccsc4C#N)CC3)cc12 [Example I-776] | < 100 nM
33 | COc1ccccc1-c1cc(C2=CCCN(C(=O)CCn3ccnn3)C2)c(F)c2[nH]c(C(=O)N3CCN(c4scnc4C)CC3)cc12 [Example I-777] | < 100 nM
34 | COc1ccccc1-c1cc(C2=CCCN(C(=O)CCn3ccnn3)C2)c(F)c2[nH]c(C(=O)N3CCN(c4nnn(C)c4C)CC3)cc12 [Example I-778] | < 100 nM
35 | COc1cc(F)cnc1N1CCN(C(=O)c2cc3c(C4CCCCN4C)cc(C4=CCCN(C(=O)CCn5ccnn5)C4)c(F)c3[nH]2)CC1 (stereo not shown) [Example I-780] | < 100 nM
36 | CCC1CN(C)CCC1c1cc(C2=CCCN(C(=O)CCn3ccnn3)C2)c(F)c2[nH]c(C(=O)N3CCN(c4ncc(F)cc4OC)CC3)cc12 (stereo not shown) [Example I-781] | < 100 nM
37 | CCC1=C(c2cc(C3=CCCN(C(=O)CCn4ccnn4)C3)c(F)c3[nH]c(C(=O)N4CCN(c5ncc(F)cc5OC)CC4)cc23)CN(C)C1 [Example I-782] | < 100 nM
38 | CCC1=C(c2cc(C3=CCCN(C(=O)CCn4ccnn4)C3)c(F)c3[nH]c(C(=O)N4CCN(c5ncc(F)cc5OC)CC4)cc23)CCN(C)C1 [Example I-783, 1-[5-[4-(5-ethyl-1-methyl-3,6-dihydro-2H-pyridin-4-yl)-7-fluoro-2-[4-(5-fluoro-3-methoxy-2-pyridyl)piperazine-1-carbonyl]-1H-indol-6-yl]-3,6-dihydro-2H-pyridin-1-yl]-3-(triazol-1-yl)propan-1-one] | 100 to 1000 nM and < 100 nM
39 | CCN1CCCCC1c1cc(C2=CCCN(C(=O)CCn3ccnn3)C2)c(F)c2[nH]c(C(=O)N3CCN(c4ncc(F)cc4OC)CC3)cc12 (stereo not shown) [Example I-784] | < 100 nM
40 | COc1cc(F)cnc1N1CCN(C(=O)c2cc3c(C4CN(C)C4)cc(C4=CCCN(C(=O)CCn5ccnn5)C4)c(F)c3[nH]2)CC1 [Example I-785] | < 100 nM
41 | CCc1ccncc1-c1cc(C2=CCCN(C(=O)CC(=O)O)C2)c(F)c2[nH]c(C(=O)N3CCN(c4ncc(F)cc4OC)CC3)cc12 [Example I-786] | < 100 nM
42 | CCc1ccncc1-c1cc(C2=CCCN(C(=O)CC(=O)O)C2)c(F)c2[nH]c(C(=O)N3Cc4cnn(CC)c4C3)cc12 [Example I-787] | < 100 nM
43 | CCc1cc(C)ncc1-c1cc(C2=CCCN(C(=O)CC(=O)O)C2)c(F)c2[nH]c(C(=O)N3Cc4cnn(CC)c4C3)cc12 [Example I-788] | < 100 nM
44 | CCc1nc(C)ccc1-c1cc(C(=O)N2CCN(c3ncc(F)cc3OC)CC2)cc2cc(C3=CCCN(C(=O)CC(=O)O)C3)n(CC3CC3)c12 [Example I-789, 3-(3-(1—(Cyclopropylmethyl)-7-(2-ethyl-6-methylpyridin-3-yl)-5-(4-(5-fluoro-3-methoxypyridin-2-yl)piperazine-1-carbonyl)-1H-indol-2-yl)-5,6-dihydropyridin-1(2H)-yl)-3-oxopropanoic acid] | < 100 nM
45 | CCc1ccncc1-c1cc(C2=CCCN(C(=O)C(=O)O)C2)c(F)c2[nH]c(C(=O)N3CCN(c4ncc(F)cc4OC)CC3)cc12 [Example I-790] | < 100 nM
46 | COc1ncccc1-c1cc(C(=O)N2Cc3cnn(C)c3C2)cc2cc(C3=CCCN(C(=O)CC(=O)O)C3)n(CC3CC3)c12 [Example I-791] | < 100 nM
47 | CCc1nc(C)ccc1-c1cc(C(=O)N2CCN(c3nc(C)c(F)cc3OC)CC2)cc2cc(C3=CCCN(C(=O)CC(=O)O)C3)n(CC3CC3)c12 [Example I-792] | < 100 nM
48 | CCc1ccc(-c2cc(C(=O)N3CCN(c4ncc(F)cc4OC)CC3)cc3cc(C4=CCCN(C(C)=O)C4)n(CC4CC4)c23)c(C)n1 [Example I-793] | < 100 nM
49 | CCc1nc(C)ccc1-c1cc(C(=O)N2CCN(c3ncc(F)cc3OC)CC2)cc2cc(C3=CCCN(C(=O)CC(=O)O)C3)n(CC)c12 [Example I-794] | < 100 nM

— US20250214977A1, “STAT6 INHIBITORS AND USES THEREOF” (Kymera Therapeutics, Inc., priority 2024, published 2025)
